We go through 56 compounds from paper PMC4336329 (PLoS ONE, 2015).

The whole screen tested about 310,000 compounds, of which about 2,200 (0.71%) showed an effect of 50% or more. Effects have a minus sign here. Some of the results follow.

The experiment deals with human ether-à-go-go-related gene (hERG) potassium channel (human, UniProt Q12809). Put plainly: primary screen, population patch clamp on CHO cells stably expressing hERG.
human ether-à-go-go-related gene (hERG) potassium channel, sequence (Q12809 whole entry, looked up): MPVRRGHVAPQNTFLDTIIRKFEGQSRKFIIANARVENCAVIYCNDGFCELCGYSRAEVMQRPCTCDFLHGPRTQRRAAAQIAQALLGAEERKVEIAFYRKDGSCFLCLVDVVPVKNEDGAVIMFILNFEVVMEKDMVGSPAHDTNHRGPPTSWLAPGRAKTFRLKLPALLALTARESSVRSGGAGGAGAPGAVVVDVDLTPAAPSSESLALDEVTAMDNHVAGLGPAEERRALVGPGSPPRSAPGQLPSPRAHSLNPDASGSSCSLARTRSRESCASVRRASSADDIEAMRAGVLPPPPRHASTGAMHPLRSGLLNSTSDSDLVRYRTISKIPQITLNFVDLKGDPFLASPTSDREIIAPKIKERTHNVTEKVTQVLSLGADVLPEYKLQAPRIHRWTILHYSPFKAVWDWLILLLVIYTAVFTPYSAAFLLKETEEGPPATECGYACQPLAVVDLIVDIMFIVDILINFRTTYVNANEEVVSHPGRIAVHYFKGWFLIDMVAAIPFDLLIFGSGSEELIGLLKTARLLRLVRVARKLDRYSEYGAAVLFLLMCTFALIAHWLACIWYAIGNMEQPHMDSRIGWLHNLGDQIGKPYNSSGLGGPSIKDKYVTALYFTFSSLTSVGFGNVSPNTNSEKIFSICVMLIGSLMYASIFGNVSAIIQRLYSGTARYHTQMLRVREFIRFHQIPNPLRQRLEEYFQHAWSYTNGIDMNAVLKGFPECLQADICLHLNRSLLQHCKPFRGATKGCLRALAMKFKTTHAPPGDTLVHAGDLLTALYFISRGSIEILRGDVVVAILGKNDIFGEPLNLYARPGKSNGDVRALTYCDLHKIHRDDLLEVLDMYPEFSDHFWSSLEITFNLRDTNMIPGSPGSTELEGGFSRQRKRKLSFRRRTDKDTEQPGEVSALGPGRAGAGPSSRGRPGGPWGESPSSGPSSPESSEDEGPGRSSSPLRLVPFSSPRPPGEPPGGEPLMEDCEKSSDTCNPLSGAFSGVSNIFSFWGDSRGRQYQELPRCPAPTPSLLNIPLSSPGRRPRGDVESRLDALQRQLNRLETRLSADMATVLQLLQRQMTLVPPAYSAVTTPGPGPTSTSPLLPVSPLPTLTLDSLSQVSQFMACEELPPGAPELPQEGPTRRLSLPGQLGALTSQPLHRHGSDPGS
As to `COc1ccc(-c2csc(NC(=O)c3cc(-c4cccs4)nc4ccccc34)n2)c(OC)c1`, the “hERG current change (%, negative = inhibition) at 1uM” value was determined as 6.28%. As for `O=C(CN1C(=O)/C(=C\c2cccs2)SC1=S)Nc1cccc(C(=O)O)c1`, the figure is 5.87%. For `CC(Sc1nnc2ccccn12)C(=O)NCc1ccc2c(c1)OCO2` (centres unmarked) the value was 10.1%; for `Cc1nnc(SCC(N)=O)n1CC1CCCO1` (centres unmarked), 10.8%. As for `Cc1ccccc1COC[C@H](CC(C)C)N1CCN(C(=O)c2cccc(C(F)(F)F)c2)CCC1=O`, the figure is 7.72%; as for `O=C(CSc1nc(O)cc(=O)n1-c1ccccc1)Nc1nc2ccccc2s1`, 16.7%; as for `COc1ccc(C(=O)OCC(=O)N2C(C)CCCC2C)cc1[N+](=O)[O-]` (centres unmarked), 4%. With `C/C(CCN1CCc2nc(-c3ccccc3)c(-c3ccccc3)cc2C1)=N\O[C@H](C)c1cn([C@H](CO)Cc2ccccc2)nn1`, the “hERG current change (%, negative = inhibition) at 1uM” value was determined as 8.94%. For `CC(C)NC(=O)c1ccccc1S(=O)(=O)c1ccccc1C#N` the value was 8.26%; for `CCOc1cc(/C=N/Nc2nc(Nc3ccccc3)nc(N3CCCCC3)n2)ccc1OCC(=O)O`, 9.97%.

In the case of `O=C(N/N=C/c1ccncc1)c1cc(-c2ccc(Br)s2)[nH]n1`, the “hERG current change (%, negative = inhibition) at 1uM” value is reported as 6.66%. As for `Cc1cc(C)n(-c2cc(-c3ccccc3)nc(C)n2)n1`, the figure is 4.71%.

`C/C(CC(=O)NC1CCCCCC1)=N\NC(=O)c1cnccn1`: the “hERG current change (%, negative = inhibition) at 1uM” value is given as 5.31%. As for `CN1CCN(CC#CC2(O)CCCCC2)CC1`, the figure is 12.9%. Turning to `O=C(CCCN1C(=O)c2cccnc2C1=O)Nc1ccc(Br)cc1`, the “hERG current change (%, negative = inhibition) at 1uM” value was 2.56%. With `CCSc1nnc(CCNC(=O)OC(C)(C)C)o1`, the “hERG current change (%, negative = inhibition) at 1uM” value worked out at 9.54%. For `COc1ccc(NC(=O)CN(C)C(=O)/C=C/c2cn(-c3ccccc3)nc2-c2ccc(C)cc2)cc1` the value was 13.2%; for `C=CCn1c(SCC(=O)Nc2ccccc2OC)nnc1-c1ccccn1`, 3.16%. For `CC(=O)NC1(c2ccccc2)CCN(CC(=O)N2CCC(C)CC2)CC1` the value was 17.1%; for `Cn1c(CSCc2ccc(F)cc2)n[nH]c1=S`, 13.6%.

`Cc1cc(NC(=O)CSc2nc(=O)n3cccc(C)c3n2)no1`: the “hERG current change (%, negative = inhibition) at 1uM” value was 12.7%.

Take `Cc1nc2sc3c(O)cc(=O)[nH]c3c2c(C)c1C`: the “hERG current change (%, negative = inhibition) at 1uM” value came to 1.26%. Consider `Cc1cc(C)cc(N(CC(=O)NC2CCCC2)S(=O)(=O)c2c(C)[nH]c(=O)[nH]c2=O)c1`, for which the “hERG current change (%, negative = inhibition) at 1uM” value is reported as 11.1%. As for `COc1ccc(C2CC(=O)C3=C(C2)Nc2ncnn2C3c2ccccc2C)cc1` (centres unmarked), the figure is -1.48%; as for `CCCC(C)NC(=O)/C=C/c1cccc([N+](=O)[O-])c1` (centres unmarked), 10.3%. As for `O=C(CSc1ncn[nH]1)c1ccco1`, the figure is 13.2%; as for `CN(C)C(=O)CCc1nc(-c2ccc(C(C)(C)C)cc2)no1`, -5.5%; as for `COc1ccc(NC(=O)CSc2nnc(-c3cc(C)[nH]n3)n2N)cc1`, 15.9%.

In the case of `O=C(NCC1CCCO1)C(c1ccc(F)cc1)N(Cc1ccc(F)cc1)C(=O)Cn1nnc(-c2cccs2)n1` (centres unmarked), the “hERG current change (%, negative = inhibition) at 1uM” value was -6.35%. As for `O=[N+]([O-])c1ncn(C23CC4CC(CC(C4)C2)C3)n1`, the figure is 10.8%; as for `CNC(=O)CS(=O)CC(=O)Nc1cc(OCCOC)c(Cl)cc1Cl` (centres unmarked), 6.96%; as for `CC(=O)Nc1ccc(OCc2ccc(S(=O)(=O)Cc3ccccc3)cc2)cc1`, 11.9%.

For the compound `CCCCN(C(=O)C1CC(=O)N(Cc2ccc(C)cc2)C1)c1c(N)n(CC(C)C)c(=O)[nH]c1=O` (centres unmarked), the “hERG current change (%, negative = inhibition) at 1uM” value is recorded as 13.2%.

As to `C[C@@H]1CC=C[C@H]2[C@H]1C(=O)N(Cc1ccccc1)[C@H]2c1ccc(-c2cc3ccccc3s2)cc1F`, the “hERG current change (%, negative = inhibition) at 1uM” value is 6.66%. For `OC(CNCCNc1ncccc1C(F)(F)F)Cn1ccc2ccccc21` (centres unmarked) the value was -6.1%; for `Cc1nn(Cc2ccc(Cl)c(Cl)c2)c(C)c1NC(=O)c1cc(-c2ccco2)on1`, 11.1%; for `Cc1cc(C(=O)CN2C(=O)NC3(CCCc4ccccc43)C2=O)c(C)n1C` (centres unmarked), 0.755%. As for `O=S(=O)(c1cc(Br)ccc1Br)N1CCCCCC1`, the figure is 15.1%. As for `O=c1[nH]c(CSc2nc3ccccc3s2)nc2ccccc12`, the figure is 0.35%. With `COc1ccc(CC(=O)OCCN(C)C)cc1.Cl`, the “hERG current change (%, negative = inhibition) at 1uM” value came to 12.9%. As for `Cc1sc2nc(CN(C(=O)NCc3ccccc3)C3CCCC3)[nH]c(=O)c2c1C`, the figure is 7.09%; as for `COc1ccc(C(C[N+](=O)[O-])n2nc(C)cc2C)cc1` (centres unmarked), 12%. Consider `O=C(CSc1nc2ccccc2s1)N/N=C/c1cc([N+](=O)[O-])ccc1O`, for which the “hERG current change (%, negative = inhibition) at 1uM” value was determined as 14%. In the case of `CCOC(=O)c1[nH]c(C)c(C(=O)NC2CCCCCC2)c1C`, the “hERG current change (%, negative = inhibition) at 1uM” value is 1%.

With `N#CCC(=O)Nc1ccc(C(=O)OCC(=O)NCCCc2ccccc2)cc1`, the “hERG current change (%, negative = inhibition) at 1uM” value was 17.2%. In the case of `Cc1[nH]c2ccccc2c1C(=O)C(=O)N1CCN(c2ccccc2Cl)CC1`, the “hERG current change (%, negative = inhibition) at 1uM” value is given as 12%. For `Cc1[nH]c2c(C)cccc2c1CC(=O)O` the value was 19.3%; for `COc1ccccc1N1CCN(CCCCCCOc2ccc(F)cc2)CC1`, -7.53%.

With `O=C(CCC(=O)N(CC(=O)NC1CCCC1)Cc1ccc2c(c1)OCO2)Nc1nccs1`, the “hERG current change (%, negative = inhibition) at 1uM” value was 2.19%. As for `COC(=O)c1ccccc1NC(=O)CN(c1c(C)cccc1C)S(C)(=O)=O`, the figure is 11.6%. As for `CCOC(=O)[C@H]1[C@H]2COc3ccc(OC)cc3[C@@H]2N2C(=O)c3cc(OC)c(OC)cc3NC(=O)[C@@]12C`, the figure is 5.4%. For `COC/C=C/C1=CC2=CC(=O)C(C)(OC(=O)c3cnc4ccccc4n3)C(=O)C2=CN1CCCCO` (centres unmarked) the value was 0.707%. On to `CCN(CC)C(=O)c1ccc(O)c(OC)c1`, for which the “hERG current change (%, negative = inhibition) at 1uM” value is 18.1%. For `COc1cc(/C=C2\C=CC(=O)O2)cc(OC)c1`, the “hERG current change (%, negative = inhibition) at 1uM” value turned out to be 12.2%. As for `CCC(CC)C(=O)c1c[nH]c(C(=O)NCCc2ccccn2)c1`, the figure is 5.3%. With `O=C(N1CCOCC1)C(F)(F)C(=O)N1CCOCC1`, the “hERG current change (%, negative = inhibition) at 1uM” value is 6.35%.
